# Test results published in the supplement of paper PMC8728848.
# This is one part of the list.
# How the values were obtained:
# Experiment in all cases: glycan array binding signal (z-score within array); higher = stronger binding
# Conditions in all cases: glycan notation: IUPAC condensed, linker removed
# [1] = molecular target: Gal3S(b1-4)[Fuc(a1-3)]Glc
# Summary of the method: (§1)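 Negative Z-scores can be read as non-binding. The Z-score is calculated within each array and then averaged across arrays of one protein sequence at different concentrations or buffers and across linkers. Arrays, 3228 in all, were curated from the Consortium for Functional Glycomics database and kept only where the protein sequence was available.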
# [2] = molecular target: Gal3S(b1-4)[Fuc(a1-3)]Glc6S
# Summary of the method: as §1
# [3] = molecular target: Gal3S4S(b1-4)GlcNAc
# Summary of the method: as §1
# [4] = molecular target: Gal3S6S(b1-4)GlcNAc
# Summary of the method: as §1
# [5] = molecular target: Gal3S6S(b1-4)GlcNAc6S
# Summary of the method: as §1
# [6] = molecular target: Gal4S(b1-4)GlcNAc
# Summary of the method: as §1
# [7] = molecular target: Gal4S6S(b1-4)GlcNAc
# Summary of the method: as §1
# [8] = molecular target: Gal6S(b1-4)Glc
# Summary of the method: as §1
# [9] = molecular target: Gal6S(b1-4)Glc6S
# Summary of the method: as §1
# [10] = molecular target: Gal6S(b1-4)GlcNAc
# Summary of the method: as §1
# [11] = molecular target: Gal6S(b1-4)GlcNAc6S
# Summary of the method: as §1
# [12] = molecular target: GalNAc(a1-3)Gal
# Summary of the method: as §1
# [13] = molecular target: GalNAc(a1-3)GalNAc
# Summary of the method: as §1
# [14] = molecular target: GalNAc(a1-3)GalNAc(a1-3)Gal(a1-4)Gal(b1-4)GlcNAc
# Summary of the method: as §1
# [15] = molecular target: GalNAc(b1-3)Gal
# Summary of the method: as §1
# [16] = molecular target: GalNAc(b1-3)Gal(a1-4)Gal(b1-4)GlcNAc
# Summary of the method: as §1
# [17] = molecular target: GalNAc(b1-3)Gal(a1-4)Gal(b1-4)GlcNAc(b1-3)Gal(b1-4)Glc
# Summary of the method: as §1
# [18] = molecular target: GalNAc(b1-3)Gal(a1-6)Gal(b1-4)Glc
# Summary of the method: as §1
# [19] = molecular target: GalNAc(b1-3)GalNAc
# Summary of the method: as §1
# [20] = molecular target: GalNAc(b1-4)GlcNAc
# Summary of the method: as §1
# [21] = molecular target: GalNAc(b1-4)GlcNAc(b1-2)Man(a1-3)[GalNAc(b1-4)GlcNAc(b1-2)Man(a1-6)]Man(b1-4)GlcNAc(b1-4)GlcNAc
# Summary of the method: as §1
# [22] = molecular target: Glc(a1-4)Glc
# Summary of the method: as §1
# [23] = molecular target: Glc(a1-6)Glc(a1-6)Glc
# Summary of the method: as §1
# [24] = molecular target: Glc(b1-4)Glc
# Summary of the method: as §1
# [25] = molecular target: Glc(b1-6)Glc
# Summary of the method: as §1
# [26] = molecular target: GlcA(b1-3)Gal
# Summary of the method: as §1
# [27] = molecular target: GlcA(b1-3)GlcNAc
# Summary of the method: as §1
# [28] = molecular target: GlcA(b1-6)Gal
# Summary of the method: as §1
# [29] = molecular target: GlcNAc(a1-3)Gal(b1-4)GlcNAc
# Summary of the method: as §1
# [30] = molecular target: GlcNAc(a1-4)Gal(b1-3)GlcNAc
# Summary of the method: as §1
# [31] = molecular target: GlcNAc(a1-4)Gal(b1-4)GalNAc
# Summary of the method: as §1
# [32] = molecular target: GlcNAc(a1-4)Gal(b1-4)GlcNAc
# Summary of the method: as §1
# [33] = molecular target: GlcNAc(a1-4)Gal(b1-4)GlcNAc(b1-3)Gal(b1-4)Glc
# Summary of the method: as §1
# [34] = molecular target: GlcNAc(a1-4)Gal(b1-4)GlcNAc(b1-3)Gal(b1-4)GlcNAc
# Summary of the method: as §1
# [35] = molecular target: GlcNAc(a1-4)Gal(b1-4)GlcNAc(b1-3)Gal(b1-4)GlcNAc(b1-3)Gal(b1-4)GlcNAc
# Summary of the method: as §1
# [36] = molecular target: GlcNAc(a1-4)Gal(b1-4)GlcNAc(b1-3)Gal(b1-4)[Fuc(a1-3)]GlcNAc(b1-3)Gal(b1-4)[Fuc(a1-3)]GlcNAc
# Summary of the method: as §1
# [37] = molecular target: GlcNAc(a1-6)Gal(b1-4)GlcNAc
# Summary of the method: as §1
# [38] = molecular target: GlcNAc(b1-2)Gal(b1-3)GalNAc
# Summary of the method: as §1
# [39] = molecular target: GlcNAc(b1-2)Man(a1-3)[GlcNAc(b1-2)Man(a1-6)]Man(b1-4)GlcNAc(b1-4)GlcNAc
# Summary of the method: as §1
# [40] = molecular target: GlcNAc(b1-2)Man(a1-3)[GlcNAc(b1-2)Man(a1-6)]Man(b1-4)GlcNAc(b1-4)[Fuc(a1-6)]GlcNAc
# Summary of the method: as §1
# [41] = molecular target: GlcNAc(b1-2)[GlcNAc(b1-4)]Man(a1-3)[GlcNAc(b1-2)Man(a1-6)]Man(b1-4)GlcNAc(b1-4)GlcNAc
# Summary of the method: as §1
# [42] = molecular target: GlcNAc(b1-3)Gal
# Summary of the method: as §1
# [43] = molecular target: GlcNAc(b1-3)Gal(b1-3)GalNAc
# Summary of the method: as §1
# [44] = molecular target: GlcNAc(b1-3)Gal(b1-4)Glc
# Summary of the method: as §1
# [45] = molecular target: GlcNAc(b1-3)Gal(b1-4)GlcNAc
# Summary of the method: as §1
binder,measurement,setting,value
"ZG-16 (Homo sapiens), O60844 (protein) IQARSSSYSGEYGSGGGKRFSHSGNQLDGPITALRVRVNTYYIVGLQVRYGKVWSDYVGGRNGDLEEIFLHPGESVIQVSGKYKWYLKKLVFVTDKGRYLSFGKDSGTSFNAVPLHPNTVLRFISGRSGSLIDAIGLHWDVYPTSCSRCSRGSDDDDKAEPRGPTIKPCPPCKCPAPNLLGGPSVFIFPPKIKDVLMISLSPIVTCVVVDVSEDDPDVQISWFVNNVEVHTAQTQTHREDYNSTLRVVSALPIQHQDWMSGKEFKCKVNNKDLPAPIERTISKPKGSVRAPQVYVLPPPEEEMTKKQVTLTCMVTDFMPEDIYVEWTNNGKTELNYKNTEPVLDSDGSYFMYSKLRVEKKNWVERNSYSCSVVHEGLHNHHTTKSFSRTPGKRTYHHHHHHARKLTR",glycan array binding signal (z-score),[1],-0.154
same,glycan array binding signal (z-score),[2],-0.167
same,glycan array binding signal (z-score),[3],-0.17
same,glycan array binding signal (z-score),[4],-0.13
same,glycan array binding signal (z-score),[5],-0.09
same,glycan array binding signal (z-score),[6],-0.164
same,glycan array binding signal (z-score),[7],-0.123
same,glycan array binding signal (z-score),[8],-0.153
same,glycan array binding signal (z-score),[9],-0.16
same,glycan array binding signal (z-score),[10],-0.098
same,glycan array binding signal (z-score),[11],-0.193
same,glycan array binding signal (z-score),[12],-0.202
same,glycan array binding signal (z-score),[13],-0.148
same,glycan array binding signal (z-score),[14],-0.175
same,glycan array binding signal (z-score),[15],-0.222
same,glycan array binding signal (z-score),[16],-0.193
same,glycan array binding signal (z-score),[17],-0.184
same,glycan array binding signal (z-score),[18],-0.204
same,glycan array binding signal (z-score),[19],-0.1
same,glycan array binding signal (z-score),[20],-0.204
same,glycan array binding signal (z-score),[21],-0.185
same,glycan array binding signal (z-score),[22],-0.105
same,glycan array binding signal (z-score),[23],-0.189
same,glycan array binding signal (z-score),[24],-0.114
same,glycan array binding signal (z-score),[25],-0.162
same,glycan array binding signal (z-score),[26],-0.184
same,glycan array binding signal (z-score),[27],-0.091
same,glycan array binding signal (z-score),[28],-0.11
same,glycan array binding signal (z-score),[29],-0.136
same,glycan array binding signal (z-score),[30],-0.1
same,glycan array binding signal (z-score),[31],-0.185
same,glycan array binding signal (z-score),[32],0.004
same,glycan array binding signal (z-score),[33],-0.171
same,glycan array binding signal (z-score),[34],-0.217
same,glycan array binding signal (z-score),[35],-0.168
same,glycan array binding signal (z-score),[36],-0.165
same,glycan array binding signal (z-score),[37],-0.11
same,glycan array binding signal (z-score),[38],-0.157
same,glycan array binding signal (z-score),[39],-0.175
same,glycan array binding signal (z-score),[40],-0.092
same,glycan array binding signal (z-score),[41],-0.152
same,glycan array binding signal (z-score),[42],-0.231
same,glycan array binding signal (z-score),[43],-0.217
same,glycan array binding signal (z-score),[44],-0.227
same,glycan array binding signal (z-score),[45],-0.225
